Source: PubChem BioAssay AID1508623 (National Center for Advancing Translational Sciences (NCATS), 2021)
Hit rate of the full screen: of about 48,000 compounds, about 450 (0.94%) were called active. Roughly 19% stayed inconclusive and do not appear here. Calls come from the whole dose curve; as a rule, active = well fitted inhibition curve with a large enough effect; inconclusive = small, poorly fitted or top-dose-only effect; inactive = no such curve, though single readings can be large or run the other way. This is one part of the list.

Assay: Primary qHTS for Identification of Small Molecule Inhibitors of Huntingtin Promoter Activity; note: nearly all actives have a fitted effect of over 50% in size
Details: HEK293 HTT promoter firefly luciferase reporter (activity 0% = vehicle and -100% = no light), 24 h; series mostly up to 57.5 µM; activity change, negative = inhibition: at the top concentration
Method in brief: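 Quantitative HTS used concentration series of up to 57.5 uM final on HEK293 luciferase reporter cells, 24 h at 37 degrees C. Readout was Dual-Glo firefly luminescence.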

| Compound | activity change, negative = inhibition |
| --- | --- |
| COc1ccc(OC)c(CNCc2c(C(=O)O)n(Cc3ccccc3)c3cc(OC)ccc23)c1 | inactive: -11.1% |
| CCC(=O)N1CCc2cc(S(=O)(=O)NC(CC(C)C)C(=O)Nc3ccc(CC)cc3)ccc21 (centres undefined) | inactive: -17.5% |
| O=C(CN1N=C(c2ccc(Cl)cc2)CCC1=O)NCc1ccc(F)cc1 | inactive: -5.44% |
| O=C1Nc2ccccc2Oc2cc(Oc3ccc(Cl)cc3)ccc21 | inactive: -32.2% |
| Cc1ccc(-c2cc(C(F)(F)F)n3nc(C(=O)Nc4ccc(C#N)cc4)cc3n2)cc1 | inactive: -14.4% [at 11.5 µM] |
| CCOc1ccccc1CNC(=O)CCCN1C(=O)CCn2nc(-c3cccn3C)cc21 | inactive: 0% |
| Cc1ccc(CNC(=O)C2CCN(S(=O)(=O)c3ccc4c(c3)oc(=O)n4C)CC2)cc1 | inactive: -17.1% |
| CCc1ccc(-n2nc(C)c3c(C)cc(=O)n(CC(=O)Nc4ccc(OC)c(OC)c4)c32)cc1 | inactive: -16% |
| COc1ccc(Cl)cc1N(C)C(=O)Cn1cnc2sc(C)c(S(=O)(=O)N3CCN(c4ncccn4)CC3)c2c1=O | inactive: -13% |
| CCC(CC)C(=O)Nc1ccccc1C(=O)OCc1cc(=O)n2nc(C3CCCCC3)sc2n1 | inactive: -28% |
| CCOc1ccc(CNC(=O)Cn2ncc3c(=O)oc4ccc(C)cc4c32)cc1 | inactive: 5.4% |
| Cc1ccc(C)c(CN2C(=O)c3ccccc3S(=O)(=O)c3ccc(C(=O)N4CCOCC4)cc32)c1 | inactive: -21.5% |
| COc1ccc(C(=O)N2CCCCC2CCN2CCCCC2)cc1 (centres undefined) | inactive: -8.15% |
| COc1ccc(Cl)cc1NC(=O)[C@H]1O[C@@H]2OC(C)(C)O[C@@H]2[C@H]2OC(C)(C)O[C@H]21 | inactive: -4.15% |
| O=S(=O)(c1cccs1)N1CCN(c2ccc(Cl)cc2)CC1 | inactive: -52% |
| CCN1CCN(C(=O)c2ccc3c(c2)N(Cc2cc(C)ccc2C)C(=O)c2ccccc2S3=O)CC1 (centres undefined) | inactive: -18.8% |
| COc1ccc(NC(=O)Cn2cc(C(=O)C3CC3)c3ccccc32)cc1 | inactive: -7.43% |
| NS(=O)(=O)c1ccc(CCNc2nc3c(-c4cccc(F)c4)nnn3c3ccc(Cl)cc23)cc1 | inactive: 3.49% |
| CCOc1ccccc1NC(=O)Cn1nnc2sc3c(c2c1=O)CCC(C(C)(C)C)C3 (centres undefined) | inactive: 5.34% |
| Cc1ccc(CSc2nc3ccc(NC(=O)COc4ccccc4F)cc3s2)cc1 | inactive: -14.8% |
| CCN(CC)CCCNC(=O)Cn1c(-c2cccs2)cc2cc(Cl)ccc21 | inactive: -26.7% |
| CCOC(=O)c1c(C)oc2c(Cl)cc(NS(=O)(=O)c3ccc(Cl)c(C)c3)cc12 | inactive: -19.8% |
| CCOC(=O)c1c(C)[nH]c(C)c1S(=O)(=O)N(C)CC(=O)N1CCN(c2ccccc2OC)CC1 | inactive: -23% |
| CCOC(=O)N1CCN(C(=O)CN(c2ccc(C)cc2C)S(=O)(=O)c2ccccc2)CC1 | inactive: -10.4% |

| Compound | activity change, negative = inhibition |
| --- | --- |
| O=C(CN1C(=O)C2(SCC(=O)N2c2cccc(Cl)c2)c2ccccc21)NC1CCCCC1 (centres undefined) | inactive: -13.8% |
| O=C(CNS(=O)(=O)c1ccc(Br)s1)N1CCN(c2ccccc2F)CC1 | inactive: -16.1% |
| Cc1nn(CC(=O)N2CCN(c3ccccc3)CC2)c(=O)c2cccn12 | inactive: 2.11% |
| Cc1ccc(-c2nc3c(cnn3-c3ccccc3)c(=O)n2-c2ccc(Cl)cc2)cc1 | inactive: -24.7% |
| O=C(COCc1cc(-c2ccco2)on1)Nc1ccc(OC(F)(F)F)cc1 | inactive: 6.94% |
| COc1cccc(OC)c1C(=O)Nc1ccc2c(c1)CCCN2S(=O)(=O)c1ccc(C)cc1 | inactive: -29.8% |
| Cc1oc(-c2ccc(Cl)cc2)nc1Cn1c(=O)cc(-c2ccccc2)c2c(C)nn(C)c21 | inactive: -16.6% |
| Cc1ccc(-n2ncc3c(NCCC4=CCCCC4)ncnc32)cc1C | inactive: -22.9% |
| COc1cccc(-c2nc(C(N)=O)c3c(n2)n(-c2ccc4c(c2)OCO4)c(=O)n3C)c1OC | inactive: -12.6% |
| CSc1nc2c([nH]c3ccccc32)c(=O)n1-c1ccc(F)cc1 | inactive: -13.1% |
| O=C(Cn1cc(S(=O)(=O)Cc2ccc(F)cc2)c2ccccc21)NCc1ccccc1 | inactive: -20.5% |
| COc1ccccc1CCNC(=O)c1cccn1-c1nnc(N2CCCCC2)s1 | inactive: -12.1% |
| CCOc1ccc(-c2cc(C(F)(F)F)c(C#N)c(SCC(=O)Nc3ccccc3)n2)cc1 | inactive: -9.47% |
| CCCNC(=O)CN1C(=O)c2cccnc2Sc2ccccc21 | inactive: -3.12% |
| C[C@@H]1CN(c2c(F)c(N)c3c(=O)c(C(=O)O)cn(C4CC4)c3c2F)C[C@H](C)N1 | inactive |
| Cc1cccc(NC(=O)CSc2nc(C)c(Cc3ccccc3)c(=O)[nH]2)c1 | inactive: -10.7% |
| COc1ccccc1N1CCN(C(=O)c2c3c(nc4ccccc24)C(=O)N(C2CCCCC2)C3)CC1 | inactive: -14.7% |
| Cc1ccc(C)c(N2CCN(C(=O)c3c4c(nc5ccccc35)C(=O)N(C3CCCCC3)C4)CC2)c1 | inactive: -29.8% |
| O=C(N/N=C/c1ccccc1O)c1ccncc1 | inactive: -24.5% |
| CCC(C)NC(=O)c1sc2nc(C)c(C(=O)Nc3ccc(Cl)cc3)c(-c3ccc(Br)cc3)c2c1N (centres undefined) | inactive: -22.8% |
| CCCOc1cccc(C(=O)Nc2ccc(-c3nc4ccccc4o3)cc2)c1 | inactive: 9.19% |
| COc1ccc2cc(CNc3ccc(OC)c(OC)c3)c(=O)n(CC(=O)Nc3ccc(C)cc3)c2c1 | inactive: -29.1% |
| COc1cc(OC)cc(-n2c(=O)c3ccccc3n(CC(=O)NCCc3ccc(OC)c(OC)c3)c2=O)c1 | inactive: -7.73% |
| O=c1cc(-c2ccc(F)cc2)nc(SCc2nc(-c3cccc(C(F)(F)F)c3)no2)[nH]1 | inactive: 7.98% |

| Compound | activity change, negative = inhibition |
| --- | --- |
| COc1ccc(NC(=O)CN2C(=O)C3(SCC(=O)N3c3ccccc3)c3ccccc32)cc1Cl (centres undefined) | inactive: -35.6% |
| Cc1ccc(C(C)C)cc2c(C)ccc1-2 | inactive: 2.14% |
| O=C(Cn1ncn2nc(-c3cccs3)cc2c1=O)NCc1ccccc1Cl | inactive: -12.7% |
| CCc1ccc(N2C(=O)CSC23C(=O)N(Cc2cccc(OC)c2)c2ccccc23)cc1 (centres undefined) | inactive: -35.2% |
| CCn1c(=NC(=O)c2ccc(S(=O)(=O)N3CCCC3)cc2)sc2cc(Br)ccc21 | inactive: -5.13% |
| CCOC(=O)c1c(C)c(-c2ccccc2)n(CC(=O)NC2CCCCCC2)c1C | inactive: -8.52% |
| COc1cccc(NC(=O)Cn2cc(C(=O)c3ccc(F)cc3)c(=O)c3cc(OC)ccc32)c1 | inactive: -16.8% |
| Cc1cccc(Cn2cnc3c(oc4ccccc43)c2=O)c1 | inactive: 1.8% |
| CCc1oc2ccccc2c1C(=O)c1cc(I)c(O)c(I)c1 | inactive: -11.8% |
| COc1ccc(-c2c(C)nn3c(N4CCN(c5ccccc5F)CC4)cc(C)nc23)cc1OC | inactive: -8.52% |
| N#Cc1ccc(NC2=NS(=O)(=O)c3ccccc32)cc1 | inactive: -17.3% |
| CCC(=O)N1CCc2cc(CNS(=O)(=O)c3ccc(Br)s3)ccc21 | inactive: -16.4% |
| Cc1cc(C)cc(NC(=O)N2CCC(CN3CCc4ccccc4C3)CC2)c1 | inactive: -26.1% |
| CCN1CCN(C(c2ccccc2F)c2c(O)cc(C)n(CCOC)c2=O)CC1 (centres undefined) | inactive: -9.39% |
| CCCN(CCC)CCNC(=O)c1sc2nc3n(c(=O)c2c1C)CCCCC3 | inactive: -3.03% |
| COC(=O)c1c(NC(=O)c2nc(SCc3ccccc3C)ncc2Cl)sc2c1CCCC2 | inactive: 2.03% |
| Cc1ccc(C)c(N2C(=O)N(C)c3ccccc3S2(=O)=O)c1 | inactive: -27.4% |
| COc1ccc(-n2c(C)nc3cc(C(=O)NC4CCCCCC4)ccc32)cc1 | inactive: -25.7% |
| CCOc1ccccc1CNC(=O)c1cnc2sc(N3CCOCC3)nn2c1=O | inactive: 0.496% |
| CCOc1ccc(CCNC(=O)Cn2ncc3c([nH]c4ccccc43)c2=O)cc1OCC | inactive: 1.03% |
| OCCN1CCN(C(c2ccc(Cl)cc2Cl)c2sc3nc(-c4ccco4)nn3c2O)CC1 (centres undefined) | inactive: 16.1% |
| CCc1nc2ccc(C(=O)NCc3ccc(SC)cc3)cc2nc1CC | inactive: 15.8% |
| CCOc1ccc(-n2c(SCC(=O)Nc3ccc4c(c3)OCCO4)nc3c([nH]c4ccccc43)c2=O)cc1 | inactive: -4.99% |
| Clc1ccccc1-c1nnc(-c2ccccc2CNc2ccc(Br)cc2)o1 | inactive: 27.7% |

| Compound | activity change, negative = inhibition |
| --- | --- |
| COc1ccc(-c2cc(OC(=O)c3ccccc3)c3c(C)oc(C)c3c(=O)c2)cc1OC | inactive: -22.1% |
| CC(C)c1ccc2c(c1)NC(c1ccncc1)=NC(c1cccs1)=N2 | inactive: 0.984% |
| CCc1cccc(NC(=O)C(NS(=O)(=O)c2ccc3nc(C)sc3c2)C(C)C)c1 (centres undefined) | inactive: -7.45% |
| CCOc1ccccc1NC(=O)CCc1c(C)nc2c(c(C)nn2-c2ccccc2)c1C | inactive: 8.39% |
| C#CCSc1nc(-c2ccccc2)c2cc(Cl)ccc2n1 | inactive: -16% |
| Cc1ccc(Cl)cc1N1CCN(C(=O)c2ccc3c(c2)N(Cc2ccccc2F)C(=O)c2ccccc2S3=O)CC1 (centres undefined) | inactive: -14.7% |
| O=C(CCS(=O)(=O)c1cc(Br)cc2c1N(C(=O)C1CC1)CC2)Nc1ccc(F)cc1 | inactive: -13.3% |
| Cc1ccc(CNC(=O)c2sc3nc(-c4ccccc4)cn3c2C)cc1 | inactive: -27.5% |
| O=C(NCc1ccc(F)cc1)c1ccc(Cn2c(SCc3ccc(F)cc3)nc3cccnc32)cc1 | inactive: -22% |
| CC(C)Cn1c(=O)c2ccccc2n2c(CCC(=O)NCc3ccc(Cl)cc3)nnc12 | inactive: -8.13% |
| CCCN1C(=O)c2[nH]nc(-c3cccc(OC)c3)c2C1c1ccccn1 (centres undefined) | inactive: -9.31% |
| CC(C)(C)NC(=O)[C@H]1CN(Cc2cccnc2)CCN1C[C@@H](O)C[C@@H](Cc1ccccc1)C(=O)N[C@H]1c2ccccc2C[C@H]1O | inactive: -12.8% |
| Cn1nnc2c(NCc3ccccc3)ncnc21 | inactive: -1.41% |
| Cc1cc(C)cc(-n2c(C)nc3cc(C(=O)NCc4ccc(F)cc4)ccc32)c1 | inactive: -5.94% |
| CCC(C)NC(=O)c1ccc2c(c1)N(Cc1ccccc1F)C(=O)c1ccccc1S2=O (centres undefined) | inactive: -9.82% |
| CCOc1ccc(CCNC(=O)c2cn(-c3cccc(OC)c3)c(=O)c3ccccc23)cc1 | inactive: -7.7% |
| O=C(CCC(=O)N1CCSc2ccccc21)NCc1ccccc1Cl | inactive: -21.2% |
| Cc1cccc(Nc2cc(Cl)nc(SCC(=O)O)n2)c1C | inactive: -5.1% |
| CCCCn1c(=N)c(C(=O)NC2CCCCC2)cc2c(=O)n3cccc(C)c3nc21 | inactive: -3.73% [at 11.5 µM] |
| Cn1c(=O)oc2cc(S(=O)(=O)NCCC(=O)NCc3ccc(F)cc3)ccc21 | inactive: -3.98% |
| CC(CNS(=O)(=O)c1ccc2c(c1)CC(=O)N2C)c1ccccc1 (centres undefined) | inactive: -13% |
| Cc1ccc(C(C)C)c(OCCCn2c(=O)oc3ccccc32)c1 | inactive: -5.13% |
